{"source": "the RNAGym collection of RNA variant scans (doi:10.7554/elife.90254)", "parents": {"B1": {"name": "LINE1-mini (parent)", "chain": "GGCAGAGCUCAACACAGCGUGGCAAAGUGGCUGUGGCUAGACUGCC"}}, "note": "The source gives no read counts; variants with many changes may rest on few reads."}
{"variants_of": "B1", "experiment": "self-cleavage, relative activity (ratio to wild type); higher = more cleavage; in vitro, sequencing; the parent is a self-cleaving ribozyme"}
{"variant": "G5U C18A G35U U43G", "self-cleavage": 0.01}
{"variant": "G5C U9A C13U A26C C31G", "self-cleavage": 0.11}
{"variant": "G5C G22C A26G G35C", "self-cleavage": 0}
{"variant": "G5C G17U C18A A24G U32A C46U", "self-cleavage": 0.28}
{"variant": "G5C A14U A39U", "self-cleavage": 0.07}
{"variant": "G5C U20C C45G", "self-cleavage": 0.04}
{"variant": "G5C G7A A11C A24U U32G A41U", "self-cleavage": 0.01}
{"variant": "G5U A11G G40A C45U", "self-cleavage": 0.01}
{"variant": "G5U A14C U20A", "self-cleavage": 0}
{"variant": "G5C G7U A39U", "self-cleavage": 0.35}
{"variant": "G5U A14G C15A U34G C45G", "self-cleavage": 0.02}
{"variant": "G5C G29C C37A U38A", "self-cleavage": 0.01}
{"variant": "G5C U34A C42A", "self-cleavage": 0.01}
{"variant": "G5U A16U C18A G27C", "self-cleavage": 0.02}
{"variant": "G5C G7C G44A", "self-cleavage": 0.04}
{"variant": "G5U A12U G21U G35U", "self-cleavage": 0.03}
{"variant": "G5U A12C C23U C37A G40U", "self-cleavage": 0.03}
{"variant": "G5C C18A U28C", "self-cleavage": 0.04}
{"variant": "G5C C10A G29A", "self-cleavage": 0.03}
{"variant": "G5U C15A G33U", "self-cleavage": 0.04}
{"variant": "G5U A12G G17A C18A G19U A24U G33A C45A", "self-cleavage": 0}
{"variant": "G5U A39U C46U", "self-cleavage": 0.06}
{"variant": "G5U A6G G30C", "self-cleavage": 0.07}
{"variant": "G5U C8U A41U", "self-cleavage": 0.21}
{"variant": "G5C C10G G36U", "self-cleavage": 0.03}
{"variant": "G5C C10U A41U", "self-cleavage": 0.04}
{"variant": "G5C A14U G27A", "self-cleavage": 0.04}
{"variant": "G5C C13U G22C", "self-cleavage": 0.04}
{"variant": "G5C A16C C46A", "self-cleavage": 0.02}
{"variant": "G5C G27A G36U A41C C46A", "self-cleavage": 0.08}
{"variant": "G5U C8G C10A C13A A24G A25U", "self-cleavage": 0}
{"variant": "G5C C23U C45G", "self-cleavage": 0.04}
{"variant": "G5C G21U G29U A41C", "self-cleavage": 0.05}
{"variant": "G5C C8U G27A G40C C42A", "self-cleavage": 0.01}
{"variant": "G5U A16U G21U C31A", "self-cleavage": 0.03}
{"variant": "G5C U20A G29A C31A", "self-cleavage": 0.04}
{"variant": "G5U A6G C13A U20C U38C", "self-cleavage": 0.04}
{"variant": "G5U A12U U28G G35C", "self-cleavage": 0.03}
{"variant": "G5U C15U G17C C18A G35U C37G A41C", "self-cleavage": 0.03}
{"variant": "G5U C10A G27U", "self-cleavage": 0.05}
{"variant": "G5U A12G C15A A26U G30C G36U A39G U43G", "self-cleavage": 0.02}
{"variant": "G5U A12G G36A", "self-cleavage": 0.07}
{"variant": "G5C C15A G44A", "self-cleavage": 0.02}
{"variant": "G5U C10A C15A A25C G29A C42G", "self-cleavage": 0.01}
{"variant": "G5U C13G C15U", "self-cleavage": 0.02}
{"variant": "G5U C10G U34A", "self-cleavage": 0.04}
{"variant": "G5C G7C A24U C46A", "self-cleavage": 0.02}
{"variant": "G5U C8A G33A", "self-cleavage": 0.24}
{"variant": "G5C G21C A24G G27U", "self-cleavage": 0.04}
{"variant": "G5U A11G C23G G40A C42G", "self-cleavage": 0.01}
{"variant": "G5U A14G G21A C42A", "self-cleavage": 0.15}
{"variant": "G5U C10A G17C G36A", "self-cleavage": 0.01}
{"variant": "G5U C8A C42A C45U", "self-cleavage": 0.23}
{"variant": "G5C U9G A16C G21U A39G", "self-cleavage": 0.02}
{"variant": "G5C C18A G22C U32A", "self-cleavage": 0.03}
{"variant": "G5U C15G A24C G36A", "self-cleavage": 0.03}
{"variant": "G5U C10A G19A C31A", "self-cleavage": 0.02}
{"variant": "G5C G19U G35C C42G", "self-cleavage": 0.09}
{"variant": "G5U A16U C23A G40A A41U", "self-cleavage": 0.02}
{"variant": "G5U C8U U9A A12G C18U", "self-cleavage": 0.15}
{"variant": "G5U A12U U20A", "self-cleavage": 0.03}
{"variant": "G5C G7U C10A A11U C18A U20A", "self-cleavage": 0.02}
{"variant": "G5U C15A A16C G29C G33A", "self-cleavage": 0.09}
{"variant": "G5U A11C A24C U38A", "self-cleavage": 0.02}
{"variant": "G5C A26C G30C", "self-cleavage": 0.08}
{"variant": "G5C C31U C46U", "self-cleavage": 0.03}
{"variant": "G5C G7A U9C G17C C42G", "self-cleavage": 0.02}
{"variant": "G5U A14C G17C C18A A39U", "self-cleavage": 0}
{"variant": "G5U C13U C23G G40C U43A G44A", "self-cleavage": 0.06}
{"variant": "G5C C13A G21U G36U U38G", "self-cleavage": 0.02}
{"variant": "G5C A14C C15G C23G G27U", "self-cleavage": 0}
{"variant": "G5U C13U A14U", "self-cleavage": 0.01}
{"variant": "G5U C15U G17C G19C", "self-cleavage": 0.06}
{"variant": "G5C G7A C31U", "self-cleavage": 0.06}
{"variant": "G5C A11G G27U", "self-cleavage": 0.03}
{"variant": "G5U A25G U32C", "self-cleavage": 0.04}
{"variant": "G5U A16U C18U C42U C46G", "self-cleavage": 0.03}
{"variant": "G5C G7U A41G", "self-cleavage": 0.12}
{"variant": "G5U A16U A26U U28G", "self-cleavage": 0.02}
{"variant": "G5U A11G A14C A16G", "self-cleavage": 0}
{"variant": "G5U C13U A16G A24C G33U G40C", "self-cleavage": 0.01}
{"variant": "G5C C13U A14C", "self-cleavage": 0.02}
{"variant": "G5U C10A A16U U34C", "self-cleavage": 0.04}
{"variant": "G5U A26G U43C", "self-cleavage": 0.06}
{"variant": "G5C U9A G44A", "self-cleavage": 0.02}
{"variant": "G5C U20C G29U C45G", "self-cleavage": 0.02}
{"variant": "G5U C8A C10G G27C G35C", "self-cleavage": 0.01}
{"variant": "G5C C15U G17C A24U G36C U43C C46G", "self-cleavage": 0.02}
{"variant": "G5U A11G G33A C37U", "self-cleavage": 0.03}
{"variant": "G5C G21A G22C A26C", "self-cleavage": 0.03}
{"variant": "G5C A11G C15U A26G C46U", "self-cleavage": 0.02}
{"variant": "G5U A14G G17U G30C", "self-cleavage": 0.11}
{"variant": "G5C A16G G27A A39C G40U", "self-cleavage": 0.02}
{"variant": "G5U C8A A26U C45G", "self-cleavage": 0.73}
{"variant": "G5C U20G A25G", "self-cleavage": 0.11}
{"variant": "G5C A12U G22A G30C C46U", "self-cleavage": 0.04}
{"variant": "G5U A6U A12G A41U", "self-cleavage": 0.01}
{"variant": "G5U C15U A26U G29U G35C G40U A41U U43C", "self-cleavage": 0.03}
{"variant": "G5C G21C U43A", "self-cleavage": 0.17}
{"variant": "G5U A12U G29U G33A", "self-cleavage": 0.08}
{"variant": "G5C C13A G27C A41C", "self-cleavage": 0.1}
{"variant": "G5C U9C C46A", "self-cleavage": 0.05}
{"variant": "G5U C13U G36U", "self-cleavage": 0.04}
{"variant": "G5U A11C G21A U28C", "self-cleavage": 0.01}
{"variant": "G5U A11G U20C U34A", "self-cleavage": 0.02}
{"variant": "G5U A16C U28G G44U C45A", "self-cleavage": 0.02}
{"variant": "G5C C10U C18A U20C A39C", "self-cleavage": 0.09}
{"variant": "G5U A11G U20G", "self-cleavage": 0.03}
{"variant": "G5U A11C A24C A39U", "self-cleavage": 0.01}
{"variant": "G5C G29C G30A", "self-cleavage": 0.06}
{"variant": "G5U A6C A24C U34G C46G", "self-cleavage": 0.03}
{"variant": "G5C C15A C31G", "self-cleavage": 0.04}
{"variant": "G5U C13A G36U", "self-cleavage": 0.23}
{"variant": "G5U A12U G33U", "self-cleavage": 0.02}
{"variant": "G5U A6U U9G G17U", "self-cleavage": 0.02}
{"variant": "G5U C15A G19U", "self-cleavage": 0.03}
{"variant": "G5C U9A C15A G17A G21U", "self-cleavage": 0.05}
{"variant": "G5U C10A C18U G29A C46U", "self-cleavage": 0.03}
{"variant": "G5C G7A A12C C23G C45U", "self-cleavage": 0.02}
{"variant": "G5C U9C G40C", "self-cleavage": 0.04}
{"variant": "G5U A12G C15G C45U", "self-cleavage": 0.03}
{"variant": "G5C G19A G40U", "self-cleavage": 0.03}
{"variant": "G5C A14U U32A", "self-cleavage": 0.05}
{"variant": "G5U A16U G33A C42A G44A", "self-cleavage": 0.02}
{"variant": "G5U C8U C42A", "self-cleavage": 0.03}
{"variant": "G5C A11G C13U", "self-cleavage": 0.02}
{"variant": "G5U C15A G17U", "self-cleavage": 0.04}
{"variant": "G5C C18U G21C G22A G30A G33A", "self-cleavage": 0.15}
{"variant": "G5C A39C C45U C46A", "self-cleavage": 0}
{"variant": "G5U A11G G21C G22U", "self-cleavage": 0}
{"variant": "G5C C10G A14C C15A", "self-cleavage": 0.04}
{"variant": "G5U A26C G33A", "self-cleavage": 0.06}
{"variant": "G5U C10A C23U C37U A39G", "self-cleavage": 0.01}
{"variant": "G5C C10A G17C G35A", "self-cleavage": 0.02}
{"variant": "G5U C10A G17C U20C", "self-cleavage": 0.04}
{"variant": "G5U A11C U20A A25C C31U A39U", "self-cleavage": 0}
{"variant": "G5U A6U U38G C42U", "self-cleavage": 0.01}
{"variant": "G5C C18U U43A", "self-cleavage": 0.02}
{"variant": "G5C U9A C45G", "self-cleavage": 0.26}
{"variant": "G5C A25C G33U G36C", "self-cleavage": 0.02}
{"variant": "G5U A6G G21A C23U G30U", "self-cleavage": 0.07}
{"variant": "G5C C23G C31A G35C", "self-cleavage": 0.01}
{"variant": "G5C U9C G30A C37U", "self-cleavage": 0.04}
{"variant": "G5C A14C A24C G30C C31A C37A", "self-cleavage": 0.08}
{"variant": "G5C G21U G44A", "self-cleavage": 0.03}
{"variant": "G5U A6C A14G G22U G27C C31G U43C", "self-cleavage": 0}
{"variant": "G5U A16U C18G", "self-cleavage": 0.13}
{"variant": "G5C G22C C31U U32C G44C", "self-cleavage": 0.05}
{"variant": "G5C U9G C13U G22U", "self-cleavage": 0.05}
{"variant": "G5U A11C G21C C37U", "self-cleavage": 0.01}
{"variant": "G5C C18U C45U", "self-cleavage": 0.09}
{"variant": "G5C G7C A16C G19A C23U G33U U34G G36C", "self-cleavage": 0.12}
{"variant": "G5C C18G C42U", "self-cleavage": 0.6}
{"variant": "G5U C18A G27A U32C", "self-cleavage": 0.13}
{"variant": "G5U A6U C37G", "self-cleavage": 0.13}
{"variant": "G5U C15U A16U G29U", "self-cleavage": 0.04}
{"variant": "G5U C15A G29U", "self-cleavage": 0.02}
{"variant": "G5C C8A U9C", "self-cleavage": 0.93}
{"variant": "G5U A12C A39U G40U", "self-cleavage": 0.01}
{"variant": "G5C A16U C37U C45G", "self-cleavage": 0.04}
{"variant": "G5C C15G C42U", "self-cleavage": 0.03}
{"variant": "G5C C10U C15A G19A A41C C45U", "self-cleavage": 0.01}
{"variant": "G5C C13G G36A", "self-cleavage": 0}
{"variant": "G5C G29U C37G", "self-cleavage": 0.02}
{"variant": "G5U C23G A26G C37A", "self-cleavage": 0.03}
{"variant": "G5C C15G U20G C31A G33A U38C", "self-cleavage": 0.01}
{"variant": "G5U A12G U38C U43A", "self-cleavage": 0.02}
